Test results reported in paper PMC6919601, “Identification of Plasmodium dipeptidyl aminopeptidase allosteric inhibitors by high throughput screening” (PLoS ONE, 2019).
The campaign covered roughly 110,000 compounds. About 230 (0.21%) showed an effect of 50% or more. Some of the results follow.

target: DPAP1 (Plasmodium falciparum, UniProt Q8IIJ9); test: primary screen, percent inhibition; read by cleavage of a fluorogenic dipeptide substrate; higher = more effect of the substance; parameters: species or system P. falciparum D10 trophozoite lysates; single well
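Further: 30 min substrate incubation versus DMSO and 10 µM JCP410 controls.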

Sequence of DPAP1 (Q8IIJ9 whole entry, looked up): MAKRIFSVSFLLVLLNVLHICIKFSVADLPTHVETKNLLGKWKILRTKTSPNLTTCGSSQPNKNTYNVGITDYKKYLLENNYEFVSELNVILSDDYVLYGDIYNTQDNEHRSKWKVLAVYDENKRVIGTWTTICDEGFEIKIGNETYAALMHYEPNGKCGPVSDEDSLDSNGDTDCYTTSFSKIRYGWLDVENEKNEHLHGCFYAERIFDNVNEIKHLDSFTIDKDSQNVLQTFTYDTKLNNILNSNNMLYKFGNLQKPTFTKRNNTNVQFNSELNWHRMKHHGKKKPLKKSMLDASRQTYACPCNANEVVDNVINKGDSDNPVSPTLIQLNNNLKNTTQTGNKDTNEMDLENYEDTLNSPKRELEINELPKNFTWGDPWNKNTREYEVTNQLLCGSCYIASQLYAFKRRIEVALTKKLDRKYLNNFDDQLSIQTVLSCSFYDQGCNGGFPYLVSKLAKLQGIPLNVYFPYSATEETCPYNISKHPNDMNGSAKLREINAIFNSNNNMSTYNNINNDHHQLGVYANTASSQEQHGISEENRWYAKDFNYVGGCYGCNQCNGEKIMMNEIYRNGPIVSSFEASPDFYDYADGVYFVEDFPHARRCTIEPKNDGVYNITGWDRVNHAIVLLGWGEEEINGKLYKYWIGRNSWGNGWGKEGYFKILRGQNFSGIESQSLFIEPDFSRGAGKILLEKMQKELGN

| Structure (SMILES) | % Inhibition @ 10 uM |
| --- | --- |
| NC(=O)CSc1cn(CC(=O)N2CCOCC2)c2ccccc12 | -2.26% |
| Cc1cccc(-n2c(SCc3cc(=O)n4cc(Br)ccc4n3)nc3nncc-3c2O)c1 | 4.47% |
| Cc1cc(N2C(=O)CC(C(C)c3ccccc3)C2=O)no1 (centres unmarked) | 2.1% |
| CC(=C\c1ccccc1)/C=C1/SC(=O)NC1=O | 1.37% |
| Cc1ccccc1Cn1c(C(=O)O)c(CNCC2CCCO2)c2ccccc21 (centres unmarked) | 0.277% |
| CN(C)CCN1CCc2ccccc21 | 1.7% |
| CCN(Cc1ccccc1)C(=O)CSc1nc2ccncc2[nH]1 | 8.62% |
| COc1ccc(O)c(-c2cc(-c3ccc(Cl)cc3)[nH]n2)c1 | 2.78% |
| Cc1ccc(NC(=O)C2CCC(N3C(=O)C4C5C=CC(C6CC56)C4C3=O)CC2)cc1 (centres unmarked) | -3.04% |
| Cc1nc2sccc2c(=O)n1-c1ccccc1Cl | -4.72% |
| Oc1nc(S)nc(O)c1-c1ccccc1 | -0.771% |
| CN1CCc2nc3ccccc3c(C(=O)O)c2C1 | -1.99% |
| CC1CCN(c2nc3ccc(C(=O)NCCCN4CCCCC4C)cc3s2)CC1 (centres unmarked) | 1.03% |
| CCOC(=O)N1CCC(NC(=O)C2=C(C)C(=O)OC23CCCCC3)CC1 | -0.138% |
| COCCNC(=O)c1ccc2c(c1)ncn2-c1ccc(C)c(Cl)c1 | -1.99% |
| Cn1nc(C(=O)N2CCN(C(=O)c3ccco3)CC2)c2c1-c1ccccc1SC2 | 12% |
| Cc1cccc2c1NC(=O)/C2=C1\SC(Nc2ccc(F)cc2)=NC1=O | -3.18% |
| C=CCSc1nc(-c2cccs2)ccc1C#N | -4.41% |
| CC(C)(C)N1COc2ccc3c(-c4ccccc4)cc(=O)oc3c2C1 | 14.6% |
| Cc1cc(C)nc(SCc2ccc(Cl)cc2)n1 | 1.13% |
| Cc1cc(C)nc(SCCn2c(N3CCC(C)CC3)nc3c2c(=O)n(C)c(=O)n3C)n1 | 2.41% |
| CN1CCN(Cc2nc(N)nc(Nc3ccccc3)n2)CC1 | -3.23% |

| Structure (SMILES) | % Inhibition @ 10 uM |
| --- | --- |
| COc1cccc(OC)c1C(=O)N1CCN(C(=O)c2ccco2)CC1 | -0.641% |
| CCOC(=O)c1cc(C)n(CCc2ccccc2)c1C | -5.03% |
| O=C(O)C1Cc2c([nH]c3ccccc23)C(c2ccc(C(F)(F)F)cc2)N1 (centres unmarked) | -2.21% |
| O=c1/c(=C/C=C/c2ccccc2)sc2nc(-c3cccnc3)nn12 | 0.222% |
| O=C(Cn1c2c(c(-c3ccccc3)cc1=O)CCCC2)N1CCCC1 | -3.94% |
| Cc1ccc(S(=O)(=O)CCC(=O)O)cc1 | -1.77% |
| N#CCNC(=O)[C@H](CSCc1ccccc1)NC(=O)c1cccc(N)c1 | -5.21% |
| Cc1ccc(C)c(OCC(O)CN2CCN(C)CC2)c1 (centres unmarked) | 10.9% |
| Cc1ccc(NS(=O)(=O)c2cc(Cl)ccc2Cl)c(C)c1 | 0.135% |
| CC1=C(C(N)=S)C(c2ccccc2F)C2=C(O)c3ccccc3C2=N1 (centres unmarked) | -3.77% |
| CC(=O)c1c(C)nc(S)c(C#N)c1-c1ccccc1 | 39.2% |
| CCCNS(=O)(=O)c1cc(C(C)C)c(OC)cc1C | 0.895% |
| CCCCN(C)c1ncnc2onc(-c3ccc(Cl)cc3)c12 | -7.65% |
| OCCN1CCN(CCN2CCCC(c3ccc(F)cc3)c3ccc(F)cc32)CC1 (centres unmarked) | -7.31% |
| CC(C)(C)Sc1cc(C(=O)O)sc1C(=O)O | -4.01% |
| CC1CCN(S(=O)(=O)c2ccc3nc(O)cc(C(=O)NCCc4ccccc4)c3c2)CC1 | 2.79% |
| COc1cccc2c1cc1c(=O)n(CC(=O)N3CCN(Cc4ccccc4)CC3)nc(C)n12 | -1.7% |
| Cc1[nH]nc2c1C(C1CC=CCC1)C(C#N)=C(N)O2 (centres unmarked) | 0.121% |
| CCCCOc1ccc(C(=O)NCc2nnc(S)n2-c2cccc(Cl)c2)cc1 | 36.7% |
| CCN(C(=O)c1cc2c(=O)n3cccc(C)c3nc2n1C)c1cccc(C)c1 | 13.6% |
| Cn1cccc1CNCCCN1CCOCC1 | 0.032% |
| COc1ccc(CCNC(=O)C(=O)NCC(c2cccnc2)N2CCOCC2)cc1OC (centres unmarked) | 0.00665% |

| Structure (SMILES) | % Inhibition @ 10 uM |
| --- | --- |
| COc1ccc(OC)c(NC(=O)COc2ccc(Br)c(C)c2)c1 | 5.42% |
| CC1CN(Cc2nc3c(c(=O)n(C)c(=O)n3C)n2CCc2ccccc2)CC(C)O1 (centres unmarked) | -7.05% |
| CC(C)NC(=O)c1ccc(CS(=O)c2cccc(Cl)c2)o1 (centres unmarked) | -0.999% |
| Cc1ccccc1OCCSc1nc2ccccc2n1CCC(=O)O | 4.78% |
| CCOC(=O)N1CCN(Cc2nc3c(c(=O)n(C)c(=O)n3C)n2Cc2cccc3ccccc23)CC1 | 4.51% |
| Cc1sc2s[n+](CCCS(=O)(=O)O)c(C)c2c1C | -1.33% |
| O=C(COc1ccc(Cl)cc1Cl)Nc1ccc(CN2CCOCC2)cc1 | -5.34% |
| COc1ccc(C(=O)N2CCC(N3CCCCCC3)CC2)cc1 | 1.91% |
| C=CCc1c(C)nc(SC)nc1Nc1ccc([N+](=O)[O-])cc1 | -4.23% |
| Nc1nc(CSc2nnnn2Cc2ccccc2)nc(N2CCOCC2)n1 | 0.503% |
| CCn1c(NC(=O)Nc2ccc(Cl)c(Cl)c2)nc2ccccc21 | 0.36% |
| Cc1cccc(OCc2nc(C#N)c(N3CCOCC3)o2)c1 | -2.75% |
| COc1ccc(C2CC3=Nc4ccccc4NC(c4cccs4)C3=C(O)C2)cc1 (centres unmarked) | 2.45% |
| Cc1ccccc1Cn1c2ccccc2c2cnn(CC(=O)NCc3ccc4c(c3)OCO4)c(=O)c21 | 1.8% |
| CCc1ccc(NC2=C(Cl)C(=O)N(Cc3ccccc3)C2=O)cc1 | -0.68% |
| O=C(Cn1cccc1C(=O)c1ccccc1)NCCCc1ccccc1 | -4.04% |
| NC(=O)c1cc(S(=O)(=O)NCCc2ccccc2)cs1 | -3.15% |
| Cc1onc(-c2ccccc2)c1C(=O)NC12CC3CC(CC(C3)C1)C2 | 1.7% |
| Cn1cc(/C=C(\NC(=O)c2ccco2)C(=O)NCCO)c2ccccc21 | 1.64% |
| COCCNCc1c(C(=O)O)n(Cc2ccc(F)cc2Cl)c2cc(OC)ccc12 | 7.68% |
| N#CC1=C(N)Oc2cc(O)ccc2C1c1ccncc1 (centres unmarked) | 0.726% |
